Assay results reported in PubChem BioAssay AID624418 (National Center for Advancing Translational Sciences (NCATS), 2012).
Several values for one entry are separate records, joined by “and”; a condition that tells them apart may be missing. Equal values may be shown once. The whole screen tested about 410,000 compounds, of which about 530 (0.13%) were called active. The inconclusive results got no clear call from the source; some entries with a clear call stand among them for comparison. Calls come from the whole dose curve; as a rule, active = well fitted inhibition curve with a large enough effect; inconclusive = small, poorly fitted or top-dose-only effect, or another doubt; inactive = no such curve, though single readings can be large or run the other way. Potencies beside an inconclusive call are fits to weak or partial responses and may not hold up.

Assay: qHTS of GLP-1 Receptor Inverse Agonists: Cytotox Screen
Conditions: HEK293 cAMP-luciferase reporter cells, luminescence, 24 h; activity change, negative = inhibition: at 38.3 µM (top of the series) unless noted
In short: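 1536-well qHTS counterscreen of the MLSMR; 200 cells/uL, 12 h pre-incubation, 23 nL cpd, 24 h at 37 deg C 5% CO2, luciferase detection reagent, 12 min RT, luminescence. Inhibition = undesired.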
% is set by controls: 0 for no effect and ±100 for the full control effect; potency is the fitted concentration of half-maximal effect.

| SMILES | Potency | activity change, negative = inhibition |
| --- | --- | --- |
| Cc1ccc(NC(=O)CSc2nc(-c3ccco3)cc(C(F)(F)F)n2)cc1C | inactive and inconclusive: 1.78 µM [inhibitor, partial curve, poor fit] | – |
| O=[N+]([O-])c1ccc(O)c(-c2cc(C(F)(F)F)nc(-c3ccccc3)n2)c1 | inconclusive: 2 µM [inhibitor, full curve, poor fit] | – |
| CNC(=O)c1ccc(Nc2nc(-c3ccccc3)nc3ccccc23)cc1 | inconclusive: 20 µM [inhibitor, single point] | – |
| CC(C)CCNC(=O)c1ccc2nc(Cc3ccccc3)oc2c1 | inactive | – |
| COc1ccc(/C=C2\SC(=Nc3ccccc3OC)NC2=O)cc1 | inconclusive: 12.6 µM [inhibitor, single point] | – |
| CN(C)c1ccc(CNCCC(Cc2ccccc2)c2ccco2)cc1 (configuration not stated) | inconclusive: 22.4 µM [inhibitor, single point] | – |
| CN1CCS/C1=C/C=C1/SC(=S)N(Cc2ccccc2)C1=O | inconclusive: 12.6 µM [inhibitor, partial curve, poor fit] | – |
| COC(=O)CN1C(C(=O)c2ccccc2)=C(OC(=O)c2ccccc2)c2ccccc2S1(=O)=O | inactive | – |
| NCC12CC3CC(C1)CC(c1ccc(Cl)cc1)(C3)C2 | inconclusive: 28.2 µM [inhibitor, single point] | – |
| Cc1cc(O)c(CN2CCN(c3ccccc3)CC2)c2oc(=O)cc(C)c12 | inactive | – |
| CCOC(=O)c1cc(NC(=O)c2ccc(F)cc2)c(=O)n2c1oc1ccc(Cl)cc12 | inactive | – |
| O=C(Nc1c2c(nn1-c1ccc(Cl)cc1)CS(=O)(=O)C2)c1ccc(Br)cc1 | inconclusive: 20 µM [inhibitor, partial curve, poor fit] | – |
| NCC12CC3CC(C1)CC(c1ccc(Br)cc1)(C3)C2 | inconclusive: 28.2 µM [inhibitor, single point] | – |
| CCOc1ccc2nc(NC3=NC(C)(C)C=C(C)N3)nc(C)c2c1 | inconclusive: 22.4 µM [inhibitor, partial curve, poor fit] | – |
| CCOC(=O)c1sc(NC(=O)CC(C)c2ccccc2)nc1C (configuration not stated) | inactive | – |
| CNC(=S)N/N=C(\C)c1ccccc1 | inconclusive: 22.4 µM [inhibitor, single point] | – |
| Cc1ccc(CNC(=O)C2CC(c3cccc([N+](=O)[O-])c3)=NO2)cc1 (configuration not stated) | inconclusive: 12.6 µM [inhibitor, partial curve, poor fit] | – |
| Cc1ccc2nc(SCC(=O)NCc3ccc(F)cc3)nc(=O)n2c1 | inactive | – |
| CN(c1ccccc1C(=O)NC1CCCCC1)S(=O)(=O)c1ccccc1 | inactive | – |
| C#CCOCCOCCOCCNc1nc(N2CCN(C(=O)C(Cc3cc4ccccc4[nH]3)n3cc(C(N)Cc4ccc(O)cc4)nn3)CC2)nc(N2CCN(C(=O)C(Cc3cc4ccccc4[nH]3)n3cc(C(N)Cc4ccc(O)cc4)nn3)CC2)n1 (configuration not stated) | inconclusive: 31.6 µM [inhibitor, single point] | – |
| Cc1ccc(NC(=O)COC(=O)c2csc3c2CCC(C)C3)cc1S(=O)(=O)N1CCCCC1 (configuration not stated) | inactive | – |
| CCOC(=O)c1c(NC(=O)CSc2nnc(-c3cccnc3)o2)sc2c1CCC2 | inactive | – |
| COCCNC(=O)c1onc(CSc2cccc(OC)c2)c1C(=O)O | inconclusive: 0.631 µM [inhibitor, full curve, poor fit] | – |

| SMILES | Potency | activity change, negative = inhibition |
| --- | --- | --- |
| CN(C)CCNc1ccc(CO)c2oc3ccc(O)cc3c(=O)c12 | inconclusive: 12.6 µM [inhibitor, single point] | – |
| Oc1ccc(Br)cc1-c1nc2cnccn2c1NC1CCCCC1 | inconclusive: 3.16 µM [inhibitor, partial curve, poor fit] | – |
| CC12CCC(O)CC1=CCC1C2CCC2(C)C1CCC21CCC(=O)O1 (configuration not stated) | inactive | – |
| CCn1c(=O)c([N+](=O)[O-])c(Cl)c2ccccc21 | inconclusive: 28.2 µM [inhibitor, single point] | – |
| Cc1cc(C)n(CC2CC(=O)N(c3ccc(Cl)cc3)C2=O)n1 (configuration not stated) | inconclusive: 0.501 µM [inhibitor, full curve, poor fit] | – |
| Cc1c[nH]c2cccc(OCC(CNC(C)(C)C)OC(=O)c3ccccc3)c12 (configuration not stated) | inconclusive: 12.6 µM [inhibitor, single point] | – |
| COc1ccc(Cc2nc3ccccc3n2CC(=O)N/N=C/c2ccc(C)cc2O)cc1OC | inconclusive: 2.24 µM [inhibitor, full curve, poor fit] | – |
| CCCCCCOC(=O)C(C#N)c1nc2ccccc2nc1N1CCN(CC)CC1 (configuration not stated) | inconclusive: 11.2 µM [inhibitor, single point] | – |
| Cc1oc(-c2cccc(Cl)c2)nc1Cn1c(SCc2ccc(F)cc2)nc2cccnc21 | inactive | – |
| CC(=O)c1c(C)[nH]c(C(=O)Nc2ccc(C)cc2Br)c1C | inconclusive: 4.47 µM [inhibitor, full curve, poor fit] | – |
| O=S(=O)(Cc1cc(NCc2ccccc2)nc(-c2ccccn2)n1)c1ccccc1 | inconclusive: 4.47 µM [inhibitor, partial curve, poor fit] | – |
| NC(=S)NN=C1c2ccccc2-c2cc(Br)ccc21 | inconclusive: 2.24 µM [inhibitor, full curve, poor fit] | – |
| COc1cc(OC)c(N2CC(C(=O)NCCC3=CCCCC3)CC2=O)cc1Cl (configuration not stated) | inconclusive: 0.447 µM [inhibitor, full curve, poor fit] | – |
| S=C(NN=Cc1ccccn1)N(Cc1ccccn1)Cc1ccccn1 | inconclusive: 12.6 µM [inhibitor, partial curve, poor fit] | – |
| COc1ccc(N/N=C(/N=Nc2nc(C)cc(=O)[nH]2)c2ccccc2)cc1 | active: 3.98 µM | – |
| COC(=O)c1[nH]c2cc(OC)ccc2c1NC(=O)CCN1CCCCC1 | inactive | – |
| CC(=O)/C(=C/c1ccc(N(C)C)cc1)C(=O)c1ccccc1 | inconclusive: 10 µM [inhibitor, partial curve, poor fit] | – |
| CC(C)c1ccccc1NC(=S)NN(Cc1ccccc1)c1ccccc1 | inconclusive: 7.94 µM [inhibitor, partial curve] | – |
| CCOc1ccc(NC(=O)NC2CCOC(C)(C)C2)cc1 (configuration not stated) | inactive | – |
| COCCCNC(=S)N/N=C/c1ccc(N(C)C)cc1Cl | inconclusive: 10 µM [inhibitor, single point] | – |
| CCCC(=NC(C)CC)C1=C(O)CC(c2ccccc2)CC1=O (configuration not stated) | inactive | – |
| O=C(Nc1ccc(Br)c(C(F)(F)F)c1)c1ccc(C(F)(F)F)cc1 | inactive | – |
| Cc1ccc(OC(C)C(=O)N=Nc2c(O)[nH]c3ccc([N+](=O)[O-])cc23)cc1 (configuration not stated) | inconclusive: 11.2 µM [inhibitor, single point] | – |

| SMILES | Potency | activity change, negative = inhibition |
| --- | --- | --- |
| CN1CCN(CCC(=O)N/N=C/c2cc([N+](=O)[O-])ccc2O)CC1 | inconclusive: 15.8 µM [inhibitor, partial curve, poor fit] | – |
| CC(C)CN(C(=O)CN1C(=O)NC(c2ccccc2)(c2ccccc2)C1=O)C1CCS(=O)(=O)C1 (configuration not stated) | inconclusive: 2.82 µM [inhibitor, full curve] | – |
| COc1ccc(C(CCNCc2ccc(N(C)C)cc2)c2ccccc2OC)cc1 (configuration not stated) | inconclusive: 20 µM [inhibitor, single point] | – |
| CC(C)CCNC(=O)c1onc(CSc2ccccc2)c1C(=O)NCCC(C)C | inactive | – |
| O=C(COC(=O)c1cc([N+](=O)[O-])ccc1N1CCOCC1)NCc1ccccc1 | inconclusive: 11.2 µM [inhibitor, single point] | – |
| NCc1csc(Nc2ncccn2)n1 | inactive | – |
| O=C(CSc1nc2c([nH]c3ccccc32)c(=O)n1-c1ccccc1F)Nc1cccc(Cl)c1 | inconclusive: 15.8 µM [inhibitor, partial curve, poor fit] | – |
| COc1ccccc1-c1cc(C(=O)Nc2cccnc2)no1 | inconclusive: 1.41 µM [inhibitor, full curve, poor fit] | – |
| CN(C1=C(NC(=O)c2ccccc2)C(=O)c2ccccc2C1=O)C1CCS(=O)(=O)C1 (configuration not stated) | inconclusive: 11.2 µM [inhibitor, single point] | – |
| O=C(/C=C/c1cccc2ccccc12)c1ccncc1 | inconclusive: 25.1 µM [inhibitor, single point] | – |
| COc1ccc(C(NC(=O)C2CCN(CCOc3ccc(Cl)cc3Cl)CC2)c2ccccn2)cc1 (configuration not stated) | inconclusive: 28.2 µM [inhibitor, single point] | – |
| Cc1ccc(S(=O)(=O)Nc2nonc2C)cc1 | inconclusive: 10 µM [inhibitor, single point] | – |
| COc1ccc(C2C(C(=O)Nc3ccccc3)=C(C)Nc3nc(-c4ccc(Cl)cc4)nn32)cc1 (configuration not stated) | inactive | – |
| Fc1ccc(-n2cc(CNCCc3ccccn3)c(-c3ccccc3Cl)n2)cc1 | inconclusive: 12.6 µM [inhibitor, single point] | – |
| CC1=CS/C(=C(/C#N)C(=O)N2CCCCC2)N1c1ccccc1 | inactive | – |
| COc1ccc(CNC(=O)c2cc(-c3ccccc3O)n[nH]2)cc1 | inconclusive: 12.6 µM [inhibitor, partial curve, poor fit] | – |
| CCOC(=O)C1=NN(c2ccc([N+](=O)[O-])cc2)CC1C(=O)OC (configuration not stated) | inconclusive: 28.2 µM [inhibitor, single point] | – |
| CCOC(=O)c1ccc(NC(=O)CC2OCCN(CC)C2=O)cc1 (configuration not stated) | inactive | – |
| COc1cc(NC(C)=O)c2ncccc2c1[N+](=O)[O-] | – | inactive: 11.5% [at 1.53 µM] |
| Cc1ccc(C2Nc3cccc4cccc(c34)N2)s1 | inconclusive: 10 µM [inhibitor, single point] | – |
| Cc1cc(C)cc(NC(=O)NCc2noc3ccccc23)c1 | inactive | – |
